“And” between values parts separate entries of the source, which are not always exact repeats. Identical values can stand only once. In all, about 48,000 compounds went through this assay and about 1,200 (2.5%) were called active. Inconclusive results (about 2%) are left out.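 Rule for the calls: active = activation of at least 60% and not above a set upper limit (about 1 call in 100 departs from these limits); inconclusive = activation of 40% to 60%, or above that upper limit; inactive = activation under 40%.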 The list shows a part of the results.

For the assay, the target named is Probable G-protein coupled receptor 32 (Homo sapiens) (UniProt O75388). Briefly: qHTS for Agonists of Human Resolvin D1 Receptor DRV1. Note: 0% is about no effect. Particulars: CHO-K1 GPR32 beta-arrestin PathHunter luminescence, 90 min; at 76.9 µM; active compounds read high; zero percent set by DMSO-only wells. The procedure, abridged: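 Step 1: seed CHO-K1 GPR32 beta-arrestin cells, 2,500/well, overnight at 37 °C. Step 2: add compounds, 90 min at 37 °C. Step 3: detection reagent, 1 h ambient, then luminescence.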
Sequence of UniProt O75388 (O75388 whole entry, looked up): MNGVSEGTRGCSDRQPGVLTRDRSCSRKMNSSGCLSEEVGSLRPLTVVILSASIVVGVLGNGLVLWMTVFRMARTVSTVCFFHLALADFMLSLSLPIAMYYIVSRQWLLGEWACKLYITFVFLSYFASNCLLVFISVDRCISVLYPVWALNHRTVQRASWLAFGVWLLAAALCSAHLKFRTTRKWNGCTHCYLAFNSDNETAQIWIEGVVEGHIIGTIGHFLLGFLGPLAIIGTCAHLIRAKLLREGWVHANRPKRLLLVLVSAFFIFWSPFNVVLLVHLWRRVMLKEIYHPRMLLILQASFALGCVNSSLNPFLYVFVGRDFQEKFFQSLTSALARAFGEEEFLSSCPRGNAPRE
(qHTS replaces the single test concentration by a dilution series.)
Take `CCCOC(=O)c1cncn1C(C)c1ccccc1` (stereo not given): the activation was inactive: -10%. The same measure for `O=C(Nc1ccc(Br)cc1C(=O)c1ccccc1)c1ccccc1`: inactive: -9.25%; for `CCCOC(=O)Cc1ccc(OCC(=O)N(CC)CC)c(OC)c1`: inactive: -6.14%; for `CC(CCc1ccccc1)NC(C)C(O)c1ccc(O)cc1` (stereo not given): inactive: -4.35% and inactive: -14%. The same measure for `OCCCBr`: inactive: -4.1%; for `NC(=NCCC[C@H](N)C(=O)O)N[N+](=O)[O-]`: inactive: -6.67%; for `Cc1ccc(OCC(=O)Nc2ccc(Cl)cc2C(=O)c2ccccc2)cc1`: inactive: -9.89%. The same measure for `CC1Sc2c(C(=O)O)c(=O)c3cc(F)c(N4CCNCC4)cc3n21` (stereo not given): inactive: -23.4%. With `Cc1c(C(=O)c2cccc3ccccc23)c2cccc3c2n1[C@H](CN1CCOCC1)CO3`, the activation was inactive: -27.9%. The same measure for `O=S1(=O)N(Cc2ccccc2)CCCN1Cc1ccc(F)cc1Cl`: inactive: -20.2%. The figure for `N=C(N)c1ccc(CS(=O)(=O)F)cc1` is inactive: -6.07%. The same measure for `CC(C)(N)Cc1ccccc1Cl`: inactive: 15.9%. On to `COC(=O)c1ccc(NC(=O)c2cccn(Cc3ccccc3C)c2=O)cc1`, for which the activation is inactive: 2.45%.

In the case of `c1ccc2nc(N3CCNCC3)ccc2c1`, the activation was inactive: 18.7%. The figure for `Clc1ccc(CO/N=C(\Cn2ccnc2)c2ccc(Cl)cc2Cl)c(Cl)c1` is inactive: -105%; for `O=C1NCN(c2ccccc2)C12CCN(CC1COc3ccccc3O1)CC2` (stereo not given) it is inactive: 7.83% and inactive: -20.4%. For the compound `C[C@]12CC[C@H]3[C@@H](CCC4=CC(=O)CC[C@@H]43)[C@@H]1CC[C@@H]2OC(=O)CCc1ccccc1`, the activation was inactive: 45.3%.

Take `Oc1ccc2c3c1O[C@H]1c4[nH]c5ccccc5c4C[C@@]4(O)C(C2)N(CC2CC2)CCC314` (stereo not given in full): the activation was inactive: -24.2%. The same measure for `Cc1ccc2c(c1)C1CN(C)CCC1N2` (stereo not given): inactive: 5.59%; for `CC(N)Cc1c[nH]c2ccc(OCc3cccs3)cc12` (stereo not given): inactive: -10.7%.

Consider `CCC(=O)OC1(c2ccccc2)CCN(C)CC1`, for which the activation is inactive: -3.39%.

Consider `COc1ccc(OC)c(C(c2c(O)c3ccccc3oc2=O)c2c(C)n(C)n(-c3ccccc3)c2=O)c1` (stereo not given), for which the activation was inactive: 7.42%. The same measure for `CCc1cccc(NC(=O)CN2C(=O)CN=C(c3ccccc3F)c3cc(Cl)ccc32)c1`: inactive: -25%. With `CN1CCC(c2c[nH]c3ccc(O)cc23)CC1`, the activation is inactive: 4.83%. For the compound `CC(C)[C@@]1(NC(=O)[C@@H]2C[C@@H]3c4cccc5[nH]cc(c45)C[C@H]3N(C)C2)O[C@@]2(O)[C@@H]3CCCN3C(=O)[C@H](Cc3ccccc3)N2C1=O`, the activation is inactive: -17.8%. The same measure for `CCN[C@@H](C)Cc1cccc(C(F)(F)F)c1`: inactive: 6.1%. The figure for `CNC(=O)NC(O)C(Cl)(Cl)Cl` (stereo not given) is inactive: -11.2%; for `NC(=O)CN1CC(O)CC1=O` (stereo not given) it is inactive: -5.57%. The figure for `CCOC(=O)NC(C)(C)Cc1ccc(Cl)cc1` is inactive: 33%; for `CC(C)c1ccc(OCC(=O)N2CCN(CCc3ccncc3)CC2)cc1` it is inactive: -5.28%; for `COc1ccc(-n2c(/C=C\c3ccccc3F)nc3ccccc3c2=O)c(OC)c1` it is inactive: -23.5%. Regarding `N#Cc1cc2c(nc1SCC(=O)Nc1ccc(C(F)(F)F)cc1)C1CCN2CC1`, the activation was inactive: 20.7%. The figure for `CSc1ccc(/C=C/c2nc3ccccc3c(=O)n2-c2cccc(Cl)c2C)cc1` is inactive: -14.4%; for `Cc1ncc2n1-c1ccc(Cl)cc1C(c1ccccc1F)=NC2` it is inactive: -8.85%. Turning to `O=C(O)c1cc(Oc2ccc(C(F)(F)F)cc2Cl)ccc1[N+](=O)[O-]`, the activation was inactive: -23%.

Regarding `Cc1cc(OCC(=O)N2CCN(CCc3ccncc3)CC2)ccc1Cl`, the activation is inactive: 21.8%. The same measure for `NC(=O)c1ccc(OCC(O)CN2CC=C(c3ccc(F)cc3)CC2)cc1` (stereo not given): inactive: -3.8%. The figure for `CC(C)=CC1C(C(=O)OCc2cccc(Oc3ccccc3)c2)C1(C)C` (stereo not given) is inactive: -0.0425%; for `Cc1ccc(NC(=O)N(Cc2ccc3c(c2)OCO3)C2CCN(Cc3ccccc3)CC2)cc1C` it is inactive: 0.503%. The same measure for `C[N+](C)(C)CC#CCN1CCCC1=O`: inactive: -7.63%. `Nc1ccc(Sc2ccc(N)cc2)cc1`: the activation is inactive: -41%. The same measure for `Cc1nnc2n1-c1sc(CCc3ccc(CC(C)C)cc3)cc1C(c1ccccc1Cl)=NC2C` (stereo not given): inactive: -45.6%; for `COc1ccc(CNC(=O)/C=C/c2ccc3[nH]cc(CCN(C)C)c3c2)cc1`: inactive: 2.33%. The same measure for `C=CCC1(C(C)CC)C(=O)NC(=O)NC1=O` (stereo not given): inactive: -0.21%.

`CCOc1ccc(CN(CCc2ccc3c(c2)OCO3)Cc2cc(OC)ccc2O)cc1`: the activation is inactive: -39.7%. On to `C[N+]1(CCF)[C@@H]2CC[C@H]1CC(OC(=O)C(O)(c1ccccc1)c1ccccc1)C2` (stereo not given in full), for which the activation is inactive: -5.87%. The figure for `Nc1ccncc1` is inactive: 27.5% and inactive: 1.95%. The same measure for `O=C1CC[C@@]2(O)C3Cc4ccc(O)c5c4C2(CCN3CC2CC2)[C@H]1O5` (stereo not given in full): inactive: -1.09%. The same measure for `C[N+]1(C)CCOC(O)(c2ccc(-c3ccc(C4(O)C[N+](C)(C)CCO4)cc3)cc2)C1` (stereo not given): inactive: -1.79%; for `NC1(c2ccccc2)CCCCC1`: inactive: -1.54%. On to `O=C1c2ccccc2C(=O)C1C(=O)C(c1ccccc1)c1ccccc1`, for which the activation was inactive: 17.7%. The same measure for `COc1ccc(-c2nc(CN3C(=O)CN=C(c4ccccc4)c4ccccc43)c(C)o2)cc1`: inactive: -20.3%; for `CO[C@H]1CC=C2CCN3CCC4=C(CC(=O)OC4)[C@]23C1`: inactive: 0.998%.

Take `Cc1cccc(-n2c(/C=C/c3c[nH]c4ccccc34)nc3ccccc3c2=O)c1`: the activation is inactive: 8.45%. The figure for `CSc1ccc(CN2CCN(C(=O)COc3cccc(C)c3)CC2)cc1` is inactive: -12.1%; for `COc1ccc(OC)c(CC(C)N)c1` (stereo not given) it is inactive: 10.3%; for `Cc1cccc(Cn2cccc(C(=O)Nc3cc(C)on3)c2=O)c1` it is inactive: 39.2%. The figure for `COc1ccc(C(=O)N2CCCC2=O)cc1` is inactive: -7.12% and inactive: 11.6%; for `C=CCN1CCc2cccc3c2[C@H]1Cc1ccc(O)c(O)c1-3` it is inactive: 8.14%; for `Cc1[nH]c2ccc(O)cc2c1CCN` it is inactive: -5.66%.

The values are drawn from PubChem BioAssay AID1346428 (National Center for Advancing Translational Sciences (NCATS), 2018).
